Experimental data published in PubChem BioAssay (NCI).
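All cell lines were grown in 96-well plates and treated with compound for 48 hours. At the GI50, growth is halved.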 Not every entry of the source has a single result; some have several. This list holds those alone. There may be further records. For some of these results: The records of an entry are repeated measurements across runs, samples, wells, individuals or studies. A tag in brackets gives the origin of a value. Letters count within one entry.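 TGI marks complete inhibition of growth.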 For some of these results: A record mostly stands for its own series of concentrations, which the source does not state; some values may only mark the edge of a range. Numbered stars: 1 amine (or outer) side, 2 acyl side, 3 side chain; on linkers, the order of the positions; unused ones are H or OH. Bridge positions count the residues as written; N and C are the ends. Square brackets hold non-standard residues; d marks the D form. Peptide text beside a SMILES is read from it. I, II: the chains in the order shown. Actinocin(9to1) = Cc1c2oc3c(C)ccc(C(=O)[*:1])c3nc-2c(C(=O)[*:2])c(N)c1=O; NMeV = CN[CH](C(=O)O)C(C)C; Sar = CNCC(=O)O

Key:
Assay in all cases: NCI anticancer screen, dose series, 48 h
786-0 renal = test system: 786-0 renal
A498 renal = test system: A498 renal
A549 NSCLC = test system: A549 NSCLC
BT-549 breast = test system: BT-549 breast
CAKI-1 renal = test system: CAKI-1 renal
DU-145 prostate = test system: DU-145 prostate
HCC-2998 colon = test system: HCC-2998 colon
HCT-116 colon = test system: HCT-116 colon
HCT-15 colon = test system: HCT-15 colon
HOP-62 NSCLC = test system: HOP-62 NSCLC
HS 578T breast = test system: HS 578T breast
IGROV1 ovarian = test system: IGROV1 ovarian
KM12 colon = test system: KM12 colon
MCF7 breast = test system: MCF7 breast
MDA-MB-231 breast = test system: MDA-MB-231 breast
MDA-MB-435 = test system: MDA-MB-435
NCI-H226 lung = test system: NCI-H226 lung
NCI-H23 lung = test system: NCI-H23 lung
NCI/ADR-RES ovarian = test system: NCI/ADR-RES ovarian
OVCAR-3 ovarian = test system: OVCAR-3 ovarian
OVCAR-5 ovarian = test system: OVCAR-5 ovarian
OVCAR-8 ovarian = test system: OVCAR-8 ovarian
PC-3 prostate = test system: PC-3 prostate
SF-295 CNS = test system: SF-295 CNS
SF-539 CNS = test system: SF-539 CNS
SK-MEL-2 melanoma = test system: SK-MEL-2 melanoma
SK-OV-3 ovarian = test system: SK-OV-3 ovarian
SN12C renal = test system: SN12C renal
SNB-19 CNS = test system: SNB-19 CNS
SNB-75 CNS = test system: SNB-75 CNS
SW-620 colon = test system: SW-620 colon
T-47D breast = test system: T-47D breast
TK-10 renal = test system: TK-10 renal
U251 CNS = test system: U251 CNS
UACC-62 melanoma = test system: UACC-62 melanoma
UO-31 renal = test system: UO-31 renal
EKVX NSCLC = test system: EKVX NSCLC
LOX IMVI melanoma = test system: LOX IMVI melanoma
NCI-H460 lung = test system: NCI-H460 lung
MOLT-4 leukemia = test system: MOLT-4 leukemia

SMILES: CC(C)(C)c1ccc(C(O)CCCN2CCC(C(O)(c3ccccc3)c3ccccc3)CC2)cc1 (configuration not stated)
- TGI (786-0 renal): 50.2 µM [sample A, 1 test] and 3.05 µM [sample B, 1 test]
- TGI (A498 renal): 54 µM [sample A, 1 test] and 2.42 µM [sample B, 1 test]
- TGI (A549 NSCLC): 50.7 µM [sample A, 1 test] and 3.02 µM [sample B, 1 test]
- TGI (BT-549 breast): 47.8 µM [sample A, 1 test] and 3.05 µM [sample B, 1 test]
- TGI (CAKI-1 renal): 61.6 µM [sample A, 1 test] and 2.72 µM [sample B, 1 test]
- TGI (DU-145 prostate): 50.3 µM [sample A, 1 test] and 3.07 µM [sample B, 1 test]
- TGI (HCC-2998 colon): 30.9 µM [sample A, 1 test] and 2.79 µM [sample B, 1 test]
- TGI (HCT-116 colon): 48.7 µM [sample A, 1 test] and 2.81 µM [sample B, 1 test]
- TGI (HCT-15 colon): 48 µM [sample A, 1 test] and 3.08 µM [sample B, 1 test]
- TGI (HOP-62 NSCLC): 48.3 µM [sample A, 1 test] and 2.7 µM [sample B, 1 test]
- TGI (HS 578T breast): 51.4 µM [sample A, 1 test] and 3.76 µM [sample B, 1 test]
- TGI (IGROV1 ovarian): 46.9 µM [sample A, 1 test] and 2.87 µM [sample B, 1 test]
- TGI (KM12 colon): 47.2 µM [sample A, 1 test] and 3.15 µM [sample B, 1 test]
- TGI (MCF7 breast): 36.8 µM [sample A, 1 test] and 3.03 µM [sample B, 1 test]
- TGI (MDA-MB-231 breast): 47.9 µM [sample A, 1 test] and 3.01 µM [sample B, 1 test]
- TGI (MDA-MB-435): 36.3 µM [sample A, 1 test] and 2.98 µM [sample B, 1 test]
- TGI (NCI-H226 lung): 57.8 µM [sample A, 1 test] and 2.89 µM [sample B, 1 test]
- TGI (NCI-H23 lung): 53.4 µM [sample A, 1 test] and 3 µM [sample B, 1 test]
- TGI (NCI/ADR-RES ovarian): 48.7 µM [sample A, 1 test] and 3.08 µM [sample B, 1 test]
- TGI (OVCAR-3 ovarian): 49.7 µM [sample A, 1 test] and 2.98 µM [sample B, 1 test]
- TGI (OVCAR-5 ovarian): 52.8 µM [sample A, 1 test] and 3.11 µM [sample B, 1 test]
- TGI (OVCAR-8 ovarian): 39.9 µM [sample A, 1 test] and 3.19 µM [sample B, 1 test]
- TGI (PC-3 prostate): 45.6 µM [sample A, 1 test] and 3.32 µM [sample B, 1 test]
- TGI (SF-295 CNS): 46.7 µM [sample A, 1 test] and 3.06 µM [sample B, 1 test]
- TGI (SF-539 CNS): 55.1 µM [sample A, 1 test] and 3.21 µM [sample B, 1 test]
- TGI (SK-MEL-2 melanoma): 50.4 µM [sample A, 1 test] and 3.62 µM [sample B, 1 test]
- TGI (SK-OV-3 ovarian): 53.1 µM [sample A, 1 test] and 2.85 µM [sample B, 1 test]
- TGI (SN12C renal): 51.9 µM [sample A, 1 test] and 3.07 µM [sample B, 1 test]
- TGI (SNB-19 CNS): 49.9 µM [sample A, 1 test] and 2.93 µM [sample B, 1 test]
- TGI (SNB-75 CNS): 40.9 µM [sample A, 1 test] and 2.7 µM [sample B, 1 test]
- TGI (SW-620 colon): 42.8 µM [sample A, 1 test] and 2.93 µM [sample B, 1 test]
- TGI (T-47D breast): 49.1 µM [sample A, 1 test] and 3.07 µM [sample B, 1 test]
- TGI (TK-10 renal): 52.7 µM [sample A, 1 test] and 3.11 µM [sample B, 1 test]
- TGI (U251 CNS): 39.2 µM [sample A, 1 test] and 2.83 µM [sample B, 1 test]
- TGI (UACC-62 melanoma): 54.6 µM [sample A, 1 test] and 2.92 µM [sample B, 1 test]
- TGI (UO-31 renal): 46.7 µM [sample A, 1 test] and 2.36 µM [sample B, 1 test]

SMILES: Cc1c2oc3c(C)ccc(C(=O)NC4C(=O)NC(Cc5ccccc5)C(=O)N5CCCC5C(=O)N(C)CC(=O)N(C)C(C(C)C)C(=O)OC4C)c3nc-2c(C(=O)NC2C(=O)NC(Cc3ccccc3)C(=O)N3CCCC3C(=O)N(C)CC(=O)N(C)C(C(C)C)C(=O)OC2C)c(N)c1=O (configuration not stated) (I: TFP[Sar][NMeV] / II: TFP[Sar][NMeV]; ester I:1-I:C, II:1-II:C; linker I:N-II:N via Actinocin(9to1); configuration not given here)
- TGI (786-0 renal): 29.8 nM and 554 nM
- TGI (DU-145 prostate): 55 nM and > 100 µM
- TGI (EKVX NSCLC): 2.54 µM and 92 nM
- TGI (HCC-2998 colon): 142 nM and > 100 µM
- TGI (HCT-15 colon): 1.92 µM and > 100 µM
- TGI (LOX IMVI melanoma): 2.16 nM and > 100 µM
- TGI (NCI-H460 lung): 1.98 µM and > 100 µM
- TGI (PC-3 prostate): 276 nM and > 100 µM
- TGI (SF-539 CNS): 18.3 nM and > 100 µM
- TGI (SK-MEL-2 melanoma): 4.33 nM and > 100 µM
- TGI (SN12C renal): 772 nM and 23.7 µM
- TGI (SW-620 colon): 41 nM and > 100 µM

SMILES: CCC1(O)CC(OC2CC(N(C)C)C(OC3CC(O)C(OC4OC(C)C(=O)C=C4N)C(C)O3)C(C)O2)c2c(cc3c(c2O)C(=O)c2c(O)cccc2C3=O)C1C(=O)OC (configuration not stated)
- TGI (IGROV1 ovarian): 1.17 µM and 54.1 nM
- TGI (NCI-H460 lung): 19.9 nM and 1.5 µM

SMILES: O=C1NC(N/N=C\C(O)C(O)C(O)C(O)CO)=N/C1=C/c1ccccc1 (configuration not stated)
- TGI (MOLT-4 leukemia): 48.8 µM [sample A, 1 test] and 6.93 µM [sample B, 1 test] and 70.6 µM [sample C, 1 test]
- GI50 (T-47D breast): > 100 µM [sample A, 1 test] and 8.92 µM [sample B, 1 test] and > 100 µM [sample C, mean of 2 tests]
